Measured values from the supplement of paper PMC12217912.
Some of the results follow. The full chains were built here from the parent and the listed change. Values near 0.05 are background.

B1: TEV protease; numbered along this chain (parent)
chain: MGESLFKGPRDYNPISSSICHLTNESDGHTTSLYGIGFGPFIITNKHLFRRNNGTLVVQSLHGVFKVKDTTTLQQHLVDGRDMIIIRMPKDFPPFPQKLKFREPQREERICLVTTNFQTKSMSSMVSDTSCTFPSGDGIFWKHWIQTKDGQCGSPLVSTRDGFIVGIHSASNFTNTNNYFTSVPKNFMELLTNQEAQQWVSGWRLNADSVLWGGHKVFMVKPEEPFQPVKEATQL

Variants of: B1
Assay: raw area under fraction-flipped curve 0-4 h after induction (AUC4h, not background-subtracted), DNA-recorder readout of cleavage of the substrate (dimensionless); higher = more cleavage of the substrate by the protease variant
Conditions: temperature: 34 °C; time window: 0-4 h after rhamnose induction
Method: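 In vivo DNA recorder in E. coli TOP10(DE3) ΔrhaA at 34 °C. Each TEVp single-site mutant (parent TEVp 0) is paired with a single-site variant of the 7-mer TEVs (canonical ENLYFQ|S). The substrate sits between flexible linkers in a Bxb1-sfGFP-TEVs-SsrA fusion, so cleavage stabilises Bxb1 and speeds flipping of a recombination array, read by NGS. The value is the raw area under the fraction-flipped curve over 0-4 h after rhamnose induction (AUC4h), with ≥20 reads per time point. It is not background-subtracted; inactive controls average about 0.047.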
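Further: Bxb1 expression induced with 0.2% (w/v) L-rhamnose at OD600 near 0.5, cultures sampled hourly, flipped fraction per protease–substrate barcode pair counted by paired-end Illumina sequencing.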

Variant | area with substrate ENLYAQS | area with substrate ENLYDQS | area with substrate ENLYEQS | area with substrate ENLYGQS | area with substrate ENLYHQS | area with substrate ENLYIQS | area with substrate ENLYKQS | area with substrate ENLYLQS | area with substrate ENLYNQS | area with substrate ENLYPQS | area with substrate ENLYVQS | area with substrate ENLYYQS | area with substrate ENLYCQS | area with substrate ENLYMQS | area with substrate ENLYQQS | area with substrate ENLYRQS | area with substrate ENLYTQS | area with substrate ENLYWQS | area with substrate ENLYSQS
MGESLFKGPRDYNPISSSICHLTNESDGHTTSLYGIGFGPFIITNKHLFRRNNGTLVVQSLHGVFKVKDTTTLQQHLVDGRDMIIIRMPKDFPPFPQKLKFREPQREERICLVTTNFQTKSMSSMVSDTSCTFPSGDGIHWKHWIQTKDGQCGSPLVSTRDGFIVGIHSASNFTNTNNYFTSVPKNFMELLTNQEAQQWVSGWRLNADSVLWGGHKVFMVKPEEPFQPVKEATQL [F140H] | 0.0672 | 0.0649 | 0.054 | 0.0427 | 0.0537 | 0.0786 | 0.0809 | 0.0712 | 0.0617 | 0.0582 | 0.0726 | 0.0691 |  |  |  |  |  |  | 
MGESLFKGPRDYNPISSSICHLTNESDGHTTSLYGIGFGPFIITNKHLFRRNNGTLVVQSLHGVFKVKDTTTLQQHLVDGRDMIIIRMPKDFPPFPQKLKFREPQREERICLVTTNFQTKSMSSMVSDTSCTFPSGDGIFWKHWIQTKDGQCGSPLVSTRDGFIVGIHSASNFTNTNNYFTSVPKNFMELLTNQEAQQMVSGWRLNADSVLWGGHKVFMVKPEEPFQPVKEATQL [W199M] | 0.0639 |  | 0.0532 | 0.0495 | 0.0656 | 0.0624 | 0.0311 |  | 0.0617 | 0.0634 | 0.0707 | 0.0552 | 0.0747 | 0.0606 | 0.0625 | 0.0652 | 0.0641 |  | 
MGESLFKGPRDYNPISSSICHLTNESDGHTTSLYGIGFGPFIITNKHLFRRNNGTLVVQSLHGSFKVKDTTTLQQHLVDGRDMIIIRMPKDFPPFPQKLKFREPQREERICLVTTNFQTKSMSSMVSDTSCTFPSGDGIFWKHWIQTKDGQCGSPLVSTRDGFIVGIHSASNFTNTNNYFTSVPKNFMELLTNQEAQQWVSGWRLNADSVLWGGHKVFMVKPEEPFQPVKEATQL [V64S] | 0.0701 | 0.0623 |  | 0.0656 |  | 0.0899 | 0.0595 | 0.0963 |  |  |  | 0.0503 |  | 0.106 | 0.0622 |  |  | 0.0788 | 
MGESLFKGPRDYNPISSSICHLTNESDGHTTSLYGIGFGPFIIVNKHLFRRNNGTLVVQSLHGVFKVKDTTTLQQHLVDGRDMIIIRMPKDFPPFPQKLKFREPQREERICLVTTNFQTKSMSSMVSDTSCTFPSGDGIFWKHWIQTKDGQCGSPLVSTRDGFIVGIHSASNFTNTNNYFTSVPKNFMELLTNQEAQQWVSGWRLNADSVLWGGHKVFMVKPEEPFQPVKEATQL [T44V] | 0.0591 | 0.0645 | 0.0525 |  | 0.059 | 0.0728 |  | 0.0595 | 0.0485 | 0.0939 | 0.0736 |  |  | 0.0659 | 0.0516 | 0.0457 | 0.0829 | 0.073 | 0.0695
MGESLFKGPRDYNPISSSICHLTNESDGHTTSLYGIGFGPFIITNKHLFRRNNGTLVVQSLHGVFKVKDTTTLQQHLVDGRDMIIIRMPKDFPPFPQKLKFREPQREERICLVTTNFQTKSMSSMVSDTSCTFPSGDGIFWKHWIQTKDGQCGSPLVSTRDGFIVGIHSASNFTNTNNYFTSVPKNFMELLTNQEAQQWVSGWRLNADSVLWGGHKGFMVKPEEPFQPVKEATQL [V217G] | 0.0726 | 0.0549 | 0.0642 |  |  | 0.0409 |  | 0.0841 | 0.0517 | 0.0621 | 0.0538 |  | 0.0552 | 0.0687 |  |  |  | 0.0385 | 
MGESLFKGPRDYNPISSSICHLTNESDGHTTSLYGIGFGPFIITNKHLFRRNNGTLVVQSLHGVFKVKDTTTLQQHLVDGRDMIIIRMPKDFPPFPQKLKFREPQREERICLVTTNFQTKSMSSMVSDTSCTFPSGDGIFWKHWIQTKDGQCGSPLVSTRDGFIVGIHSASNFTNTNNYFTSVPKNFMELLTNQEAQQWVSGWRLNADSVLWGGHKVFMVHPEEPFQPVKEATQL [K221H] | 0.102 | 0.161 | 0.0615 | 0.0625 | 0.0522 | 0.0973 | 0.0646 |  | 0.0586 | 0.0593 | 0.105 | 0.0413 | 0.0709 | 0.0812 | 0.0632 |  | 0.078 | 0.0589 | 0.0768
MGESLFKGPRDYNPISSSICHLTNESDGHTTSLYGIGFGPFIITNKHLFRRNNGTLVVQSLHGVFKVKDTTTLQQHLVDGRDMIIIRMPKDFPPFPQKLKFREPQREERICLVTTNFQTKSMSSMVSDTSCTTPSGDGIFWKHWIQTKDGQCGSPLVSTRDGFIVGIHSASNFTNTNNYFTSVPKNFMELLTNQEAQQWVSGWRLNADSVLWGGHKVFMVKPEEPFQPVKEATQL [F133T] | 0.0831 |  | 0.0636 | 0.0838 |  | 0.131 | 0.0564 |  | 0.055 | 0.0677 | 0.129 |  |  |  | 0.0623 | 0.0694 |  | 0.0689 | 0.0777
MGESLFKGPRDYNPISSSICHLTNESDGHTTSLYGIGFGPFIITNKHLFRRNNGTLVVQSLHGVFKVKDTTTLQQHLVDGRDMIIARMPKDFPPFPQKLKFREPQREERICLVTTNFQTKSMSSMVSDTSCTFPSGDGIFWKHWIQTKDGQCGSPLVSTRDGFIVGIHSASNFTNTNNYFTSVPKNFMELLTNQEAQQWVSGWRLNADSVLWGGHKVFMVKPEEPFQPVKEATQL [I86A] | 0.0642 | 0.0642 | 0.0558 | 0.0634 | 0.0612 | 0.0714 | 0.0517 | 0.0505 | 0.0495 | 0.046 | 0.0724 | 0.0525 | 0.0558 | 0.0496 | 0.0703 |  |  | 0.0519 | 
MGESLFKGPRDYNPISSSICHLTNESDGHTTSLYGIGFGPFIITNKHLFRRNNGTLVVQSLHGVFKVKDTTTLQQHLVDGRDMIIIRMPKDFPPFPQKLKFREPQREERICLVTTNFQTKSMSSMVSDTSCTFPSGDGIFWKHWIQTKDGQCGSPLVSTRDGFIVGIHSASNFTNTNNYFTSVPKNFMELLTNQEAQQWVSGWRLNADSVLWGGHKVFMVKPEEPSQPVKEATQL [F226S] | 0.0604 | 0.0684 | 0.0593 | 0.066 | 0.0742 | 0.15 | 0.0698 |  | 0.0764 | 0.0729 |  |  |  | 0.0709 |  | 0.0621 |  | 0.09 | 0.0633
